Laboratory results published in PubChem BioAssay AID1963576 (National Center for Advancing Translational Sciences (NCATS), 2024).
Hit rate of the full screen: of about 46,000 compounds, about 60 (0.1%) were called active. Another 3% or so got no clear call; they are omitted. The call rests on the fitted dose curve; in most records, active means well fitted inhibition curve with a large enough effect; inconclusive means small, poorly fitted or top-dose-only effect; inactive means no such curve, though single readings can be large or run the other way. This is one part of the list.

test: Primary qHTS assay for Inhibitors of ovarian cancer metastasis using an organotypic tumor microenvironment (TME) model.; further: nearly all actives have a fitted effect of over 65% in size;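 on activity change, negative = inhibition: plate controls were DMSO wells for no effect and tomatine positive control wells for full effect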; conditions: SKOV3ip1-GFP adhesion/invasion on 3D omental model, fluorescence; series mostly up to 45.8 µM; activity change, negative = inhibition: at the top concentration
Summary of the method: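 A 3D layer of primary human omental fibroblasts, mesothelial cells, fibronectin and collagen I, grown 48 hr, received SKOV3ip1-GFP cells in serum-free medium plus compounds at 0.36-46 umol/L. After 2 hr RT and 16 hr 37 C, fixed adherent GFP cells were counted; normalized to DMSO and tomatine.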

outcome, inactive:
CCc1ccc(CNC(=O)CN2C(=O)CCn3nc(-c4cn(C)c5ccccc45)cc32)cc1
Cc1cccc(N2CCN(c3c4c(nc5nncn35)CCC4)CC2)c1C
CCOc1ccc(C(=O)NCc2ccc3c(c2)CCN3C(=O)c2ccc(C)cc2)cc1OCC
Cc1ccc(N(CC(C)C)S(=O)(=O)c2nnc(NC(=O)c3cccs3)s2)cc1
CNC(=O)CSc1nnc(NC(=O)Nc2ccccc2)s1
Cc1cccc(Oc2coc3cc(OCC(=O)NC4CCCCC4)ccc3c2=O)c1
CCOCN(C(=O)Cn1cnc2cc(C)c(C)cc21)c1c(C)cccc1CC

Activity change, negative = inhibition, inactive:
COc1ccccc1-c1nnc(SCC(=O)c2ccc(F)cc2)n1-c1ccccc1 -14.1%
Cn1nnnc1SCCNCc1ccc(OCc2ccc(Cl)cc2)cc1 -17.9%
O=C(Nc1cccc(Cl)c1)C1CCCN1S(=O)(=O)c1cccc2cccnc12 (stereo not drawn) -8.39%
Cc1cccc(NC(=O)CSc2nc(=O)n(Cc3cccnc3)c3c2CCC3)c1C 1.27%
COc1cccc2c1CCCC2CCCN1CCN(C2CCCCC2)CC1 (stereo not drawn) 2.44%
COc1ccc(C(=O)Nc2ccc(N3CCOCC3)c(C(F)(F)F)c2)cc1OC -18.9%
COc1cccc(OCC(=O)Nc2nnc3n2CCS3)c1 -1.55%
CCc1ccc(C2=C(C)C(N3CCC(C(=O)NCCc4ccco4)CC3)=NS2(=O)=O)cc1 10.7%
Cc1oc(-c2cccc(Cl)c2)nc1CN1CCC(C(=O)NCCc2ccc(Cl)cc2)CC1 1.88%
COc1ccc(NC(=O)c2cc3c(=O)n(Cc4cccnc4)ccc3nc2C)cc1Cl -7.36%
COc1ccccc1NC(=O)c1cc(S(=O)(=O)N2CCc3ccccc32)ccc1F 3.55%
CN(C)c1ccc(C(CNS(=O)(=O)c2ccc(F)cc2)N2CCc3ccccc32)cc1 (stereo not drawn) 8.32%
COc1cc(-c2nnc(SCC(=O)Oc3ccccc3Cl)o2)cc(OC)c1OC -4.68%
COc1ccc(S(=O)(=O)c2cn(Cc3ccccc3)c3ccc(OC)cc3c2=O)cc1 -3.43%
C=Cc1ccc(Cn2c(=O)cc(C)c3c(C)nn(C)c32)cc1 3.75%
CCOC(=O)c1cc(-c2ccccc2)n(CCCC(=O)Nc2cc(C)ccc2OC)c1C 5.22%
Cc1cccc(C(=O)Nc2ccc(N3CCN(c4ccc(F)cc4)CC3)c(C(=O)O)c2)c1 -23.7%
COc1ccccc1Cc1nc2ccccc2nc1SCC(=O)N1CCC(C)CC1 5.05%
CC(C)CCN(Cc1ccco1)C(=O)Cn1ncc2c([nH]c3ccccc32)c1=O -1.04%
COc1ccccc1NC(=O)c1cc(C2CC2)nc2c1c(C)nn2-c1ccc(C)cc1 -7.9%
O=c1c(N2CCc3ccccc3C2)csc2ccc(Br)cc12 2.6%
O=c1c(S(=O)(=O)c2ccc(Cl)cc2)cn(Cc2ccc(F)cc2)c2ccc(F)cc12 -0.786%
COc1ccc(Nc2cc(C(=O)NCc3ccccc3)c3ccccc3n2)cc1OC -6.37%
CN1C(=O)c2[nH]nc(-c3ccc(F)cc3)c2C1c1ccccn1 (stereo not drawn) 6.47%
COc1ccc(S(=O)(=O)c2cn(Cc3ccccc3)c3cc(F)c(F)cc3c2=O)cc1 -3.33%
COc1ccc(OC)c(NC(=O)CCc2nc(-c3ccc(C)cc3)no2)c1 29.3%
Cc1c(C(=O)N2CCC(C)CC2)c(S(=O)(=O)N2CCN(c3cccc(Cl)c3)CC2)c(C)n1C 12.5%
Cc1ccc2nc(SCC(=O)Nc3ccc(C#N)cc3)[nH]c2c1 9.09%
Cc1ccn2c(Nc3ccc4c(c3)OCCO4)c(-c3ccc(C)s3)nc2c1 -3.46%
CC(C)c1ccc(NC(=O)Cn2nnc(C(=O)NCc3cccs3)c2N)cc1 24.4%
CCCCn1c(SCC(=O)Nc2ccc(F)cc2)nc2c(sc3ccccc32)c1=O -14.1%
Fc1ccc(Nc2nc(Nc3ccc(F)cc3)nc(N3CCOCC3)n2)cc1 15.4%
COc1ccc(C(=O)NCC(c2ccc3c(c2)OCO3)N2CCN(c3ccc(F)cc3)CC2)cc1 (stereo not drawn) -16.4%
COc1ccc(NC(=O)C(=O)NCC2(c3ccccc3)CCCC2)c(OC)c1 -11.5%
CCOc1ccc(-c2cc(C(=O)N3CCN(c4cccc(C(F)(F)F)c4)CC3)c3ccccc3n2)cc1 -5.47%
O=C(CSc1nnc(-c2ccc(Br)cc2)n1-c1ccccc1)c1ccccc1 -3.43%
CCOc1ccccc1N(CC(=O)Nc1ccc(OC)c(Cl)c1)S(=O)(=O)c1ccccc1 25.9%
Cc1ccc2oc3c(c(=O)c2c1)C(c1ccc(OCC(N)=O)cc1)N(Cc1ccc2c(c1)OCO2)C3=O (stereo not drawn) -4.55%
COc1ccc(-c2cn3nc(N4CCC(C(=O)Nc5ccc(C)cc5)CC4)sc3n2)cc1 -4.42%
CC1CCCCN1C(=O)CSc1nnc(-c2ccccc2Cl)o1 (stereo not drawn) 0.122%
CCOc1ccc(N(CC)S(=O)(=O)N2CCCC(C(=O)NCCc3ccccc3OC)C2)cc1 (stereo not drawn) -3.65%
COc1ccccc1CNC(=O)Cn1c(=O)ccc2cc(S(=O)(=O)N3CCCC3)ccc21 -7.53%
COc1ccc(CNC(=O)CN2C(=O)COc3ccc(S(=O)(=O)N4CCOCC4)cc32)cc1 -6.24%
CCOc1ccc(/C=C/c2nc(C#N)c(N3CCN(c4ccccc4)CC3)o2)cc1 -20.1%
CCc1ccccc1NC(=O)c1cc(-c2ccc3c(c2)OCO3)on1 -7.79%
COc1ccc(Br)cc1CNC(=O)C1COc2ccccc2C1 (stereo not drawn) -2.3%
Cc1ccc2oc(-c3cc(NC(=O)c4cccs4)cc(C)c3O)nc2c1 10.2%
O=C(Nc1ccc(C(=O)N2CCN(c3ccc(Cl)cc3)CC2)cc1)c1nsc2ccccc12 3.13%
O=c1c(-c2ccc(O)cc2)coc2cc(O)ccc12 3.34%
Cc1ccc(-c2nnc(Nc3cccc(C(F)(F)F)c3)c3ccccc23)cc1S(=O)(=O)N1CCOCC1 -12.2%
CC(C)(C)c1ccc(-c2noc(CCC(=O)Nc3cccc(Cl)c3)n2)cc1 1.66%
O=C(O)CCCCC(CCSCc1ccccc1)SCc1ccccc1 (stereo not drawn) 10.4%
CCOC(=O)N1CCN(C(=O)CN(c2cc(C)ccc2OC)S(=O)(=O)c2ccc(C)cc2)CC1 19.5%
Cc1ccc(Cl)cc1N1CCN(c2ncnc3onc(-c4ccc(F)cc4)c23)CC1 0.319%
Cc1ccc(Cn2c(C)c(CNC(C)c3ccccc3)c(C(=O)O)c2C)cc1 (stereo not drawn) 10.1%
Cc1ccc(-n2c(SCC(N)=O)nc3c([nH]c4ccccc43)c2=O)cc1 -6.45%
